{
  "source": "the RNAGym collection of RNA variant scans (doi:10.1073/pnas.2313332121)",
  "parents": {"B1": {"name": "TPR 5TU (parent)", "chain": "GGAUCUUCUCGAUCUAACAAAAAAGACAAAUCUGCCACAAAGCUUGAGAGCAUCUUCGGAUGCAGAGGCGGCAGCCUUCGGUGGCGCGAUAGCGCCAACGUUCUCAACUAUGACACGCAAAACGCGUGCUCCGUUGAAUGGAGUUUAUCAUG"}},
  "note": "Variants at the floor of the assay are shown more often than the library holds them.",
  "data": [
    {"variants_of": "B1", "experiment": "polymerase ribozyme fitness, log enrichment relative to wild type (log ratio); higher = more active; in vitro selection for triplet polymerase activity", "summary_of_the_method": "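To select mutant libraries of each subunit of a heterodimeric triplet polymerase ribozyme, built by PCR and transcribed, each was annealed with a biotinylated primer, partner subunit and triplets, then incubated frozen at −7 °C. Extended constructs were gel-excised, captured on streptavidin beads and amplified by RT-PCR, in one round carried out in triplicate. Illumina sequencing of input and output libraries kept genotypes with ≥10 input reads and ≥1 read per output. Fitness is the base-2 logarithm of genotype enrichment relative to wild-type enrichment, from inverse-variance-weighted replicate averages.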", "values": [
      {"variant": "U53A G92C A115C C116A", "polymerase ribozyme fitness (log ratio)": "≤ -4.2"},
      {"variant": "U53A G94A C125A U139C A142C", "polymerase ribozyme fitness (log ratio)": "≤ -4.2"},
      {"variant": "U53A U55A A64U C85U A113U A120U C125G A138C", "polymerase ribozyme fitness (log ratio)": "≤ -4.2"},
      {"variant": "U53A U55A C103G", "polymerase ribozyme fitness (log ratio)": "≤ -4.2"},
      {"variant": "U53A U55A G58C G59C G67U G94A C99A C103U U127A", "polymerase ribozyme fitness (log ratio)": "≤ -4.2"},
      {"variant": "U53A U55A G74A G84A C95U G141U", "polymerase ribozyme fitness (log ratio)": "≤ -4.2"},
      {"variant": "U53A U55A G84C C93A C95U", "polymerase ribozyme fitness (log ratio)": "≤ -4.2"},
      {"variant": "U53A U55C U77A U90A C93U G141C", "polymerase ribozyme fitness (log ratio)": "≤ -4.2"},
      {"variant": "U53A U55G G65C C85G C87U C103U C131A", "polymerase ribozyme fitness (log ratio)": "≤ -4.2"},
      {"variant": "U53A U56A G70U C93U G141C", "polymerase ribozyme fitness (log ratio)": "≤ -4.2"},
      {"variant": "U53A U56G C57U A73G C87A G143A", "polymerase ribozyme fitness (log ratio)": "≤ -4.2"},
      {"variant": "U53A U77G A97U", "polymerase ribozyme fitness (log ratio)": "≤ -4.2"},
      {"variant": "U53A U102G", "polymerase ribozyme fitness (log ratio)": "≤ -4.2"},
      {"variant": "U53A U127A A137G", "polymerase ribozyme fitness (log ratio)": "≤ -4.2"},
      {"variant": "U53A U135A", "polymerase ribozyme fitness (log ratio)": -1.55},
      {"variant": "U53C A66C G83C A97G C108A A119U G140U U144C", "polymerase ribozyme fitness (log ratio)": "≤ -4.2"},
      {"variant": "U53C A91U U102A C105U A147G", "polymerase ribozyme fitness (log ratio)": "≤ -4.2"},
      {"variant": "U53C C69U C75A C93U A115C", "polymerase ribozyme fitness (log ratio)": "≤ -4.2"},
      {"variant": "U53C C132G", "polymerase ribozyme fitness (log ratio)": "≤ -4.2"},
      {"variant": "U53C G58C C79U C99U C129U", "polymerase ribozyme fitness (log ratio)": "≤ -4.2"},
      {"variant": "U53C G83C C116G", "polymerase ribozyme fitness (log ratio)": -3.05},
      {"variant": "U53C G86A C95U", "polymerase ribozyme fitness (log ratio)": -1.78},
      {"variant": "U53C G94C A98C U148G", "polymerase ribozyme fitness (log ratio)": "≤ -4.2"},
      {"variant": "U53C U90C G94C U104G", "polymerase ribozyme fitness (log ratio)": "≤ -4.2"},
      {"variant": "U53G A113U", "polymerase ribozyme fitness (log ratio)": -3.16},
      {"variant": "U53G C54A C95U U104C A106U C118U C149G", "polymerase ribozyme fitness (log ratio)": "≤ -4.2"},
      {"variant": "U53G C79G C95G U130G G141C", "polymerase ribozyme fitness (log ratio)": "≤ -4.2"},
      {"variant": "U53G C87G A91G A113C U127C", "polymerase ribozyme fitness (log ratio)": "≤ -4.2"},
      {"variant": "U53G C87U A120C", "polymerase ribozyme fitness (log ratio)": -2.07},
      {"variant": "U53G C93G", "polymerase ribozyme fitness (log ratio)": "≤ -4.2"},
      {"variant": "U53G C95U", "polymerase ribozyme fitness (log ratio)": -3.07},
      {"variant": "U53G C96A U104G", "polymerase ribozyme fitness (log ratio)": -3.96},
      {"variant": "U53G C96G U144C", "polymerase ribozyme fitness (log ratio)": -3.23},
      {"variant": "U53G C96U C114U A120C A147U", "polymerase ribozyme fitness (log ratio)": -3.11},
      {"variant": "U53G C125A C149G", "polymerase ribozyme fitness (log ratio)": "≤ -4.2"},
      {"variant": "U53G G58A C69A G92A C108G", "polymerase ribozyme fitness (log ratio)": "≤ -4.2"},
      {"variant": "U53G G58C U82G A138C U151A", "polymerase ribozyme fitness (log ratio)": "≤ -4.2"},
      {"variant": "U53G G59A", "polymerase ribozyme fitness (log ratio)": -1.37},
      {"variant": "U53G G59A C75A C85A U148A", "polymerase ribozyme fitness (log ratio)": "≤ -4.2"},
      {"variant": "U53G G71C G86A G143U", "polymerase ribozyme fitness (log ratio)": "≤ -4.2"},
      {"variant": "U53G G74A C99G", "polymerase ribozyme fitness (log ratio)": "≤ -4.2"},
      {"variant": "U53G G94C A115U", "polymerase ribozyme fitness (log ratio)": -3.49},
      {"variant": "U53G G94C A122G C131A", "polymerase ribozyme fitness (log ratio)": "≤ -4.2"},
      {"variant": "U53G G117C A137G", "polymerase ribozyme fitness (log ratio)": -2.86},
      {"variant": "U53G U55A U148C", "polymerase ribozyme fitness (log ratio)": "≤ -4.2"},
      {"variant": "U53G U77C U102G A107U C118G", "polymerase ribozyme fitness (log ratio)": "≤ -4.2"},
      {"variant": "C54A", "polymerase ribozyme fitness (log ratio)": -1.06},
      {"variant": "C54A A64U C76G A91C", "polymerase ribozyme fitness (log ratio)": "≤ -4.2"},
      {"variant": "C54A A66C G92U U104G C108G G124A C131A", "polymerase ribozyme fitness (log ratio)": "≤ -4.2"},
      {"variant": "C54A A66G A91G C95G G141A G143U U146C", "polymerase ribozyme fitness (log ratio)": "≤ -4.2"},
      {"variant": "C54A A66G C87G C108A", "polymerase ribozyme fitness (log ratio)": "≤ -4.2"},
      {"variant": "C54A A91C C95A", "polymerase ribozyme fitness (log ratio)": "≤ -4.2"},
      {"variant": "C54A A91G", "polymerase ribozyme fitness (log ratio)": -3.97},
      {"variant": "C54A A91U C95A C105G U127A U148C", "polymerase ribozyme fitness (log ratio)": "≤ -4.2"},
      {"variant": "C54A A115C G141C", "polymerase ribozyme fitness (log ratio)": "≤ -4.2"},
      {"variant": "C54A C57U G58C C75A C85A A119C C132A", "polymerase ribozyme fitness (log ratio)": "≤ -4.2"},
      {"variant": "C54A C69G G84U U101A", "polymerase ribozyme fitness (log ratio)": "≤ -4.2"},
      {"variant": "C54A C69U U144C", "polymerase ribozyme fitness (log ratio)": -3.51},
      {"variant": "C54A C72U C93A", "polymerase ribozyme fitness (log ratio)": "≤ -4.2"},
      {"variant": "C54A C75G G88C U109C A147C", "polymerase ribozyme fitness (log ratio)": "≤ -4.2"},
      {"variant": "C54A C85A C105A", "polymerase ribozyme fitness (log ratio)": "≤ -4.2"},
      {"variant": "C54A C85U", "polymerase ribozyme fitness (log ratio)": -1.86},
      {"variant": "C54A C95G G128C", "polymerase ribozyme fitness (log ratio)": "≤ -4.2"},
      {"variant": "C54A C95U A106C U127G A137C A142G", "polymerase ribozyme fitness (log ratio)": "≤ -4.2"},
      {"variant": "C54A C96G", "polymerase ribozyme fitness (log ratio)": -1.71},
      {"variant": "C54A C105U", "polymerase ribozyme fitness (log ratio)": -0.396},
      {"variant": "C54A C116U U139A", "polymerase ribozyme fitness (log ratio)": -4.11},
      {"variant": "C54A G58C G80U G92A G112C", "polymerase ribozyme fitness (log ratio)": "≤ -4.2"},
      {"variant": "C54A G62A G80U A142U", "polymerase ribozyme fitness (log ratio)": "≤ -4.2"},
      {"variant": "C54A G65A C103G A115G", "polymerase ribozyme fitness (log ratio)": "≤ -4.2"},
      {"variant": "C54A G67A G70C C72G A73C G74A C75G C87G C116G", "polymerase ribozyme fitness (log ratio)": "≤ -4.2"},
      {"variant": "C54A G68A A142U", "polymerase ribozyme fitness (log ratio)": "≤ -4.2"},
      {"variant": "C54A G86A C99A C103A A142G", "polymerase ribozyme fitness (log ratio)": "≤ -4.2"},
      {"variant": "C54A G88U A89C", "polymerase ribozyme fitness (log ratio)": "≤ -4.2"},
      {"variant": "C54A U55A C103G", "polymerase ribozyme fitness (log ratio)": "≤ -4.2"},
      {"variant": "C54A U55G G58U G81C C85A", "polymerase ribozyme fitness (log ratio)": -2.41},
      {"variant": "C54A U56A C93U A120G G126U", "polymerase ribozyme fitness (log ratio)": -2.38},
      {"variant": "C54A U56A G70A A97U C105A A106C A107G A122G", "polymerase ribozyme fitness (log ratio)": "≤ -4.2"},
      {"variant": "C54A U61A C69U C125A", "polymerase ribozyme fitness (log ratio)": "≤ -4.2"},
      {"variant": "C54A U78A C87G", "polymerase ribozyme fitness (log ratio)": "≤ -4.2"},
      {"variant": "C54A U78G C95A U127A G140C", "polymerase ribozyme fitness (log ratio)": "≤ -4.2"},
      {"variant": "C54A U90A C103G A122U", "polymerase ribozyme fitness (log ratio)": "≤ -4.2"},
      {"variant": "C54A U90C G94U", "polymerase ribozyme fitness (log ratio)": "≤ -4.2"},
      {"variant": "C54G", "polymerase ribozyme fitness (log ratio)": -1.45}
    ]}
  ]
}
